In the supplement of paper PMC10369915:
The list shows a part of the results. Cut-off read from the data, not from the text of the source: active = 3.2 or more and inactive = the rest. Most of these values are background signal.

B1: PDE6C_Y266_S270T_YF (peptide)
chain: FHKALYTVRTF
B2: PDGFRA_Y572 (peptide)
chain: PDGHEYIYVDP
B3: PDGFRA_Y582 (peptide)
chain: PMQLPYDSRWE
B4: PDGFRA_Y762 (peptide)
chain: IQRSLYDRPAS
B5: PDGFRA_Y762_R764C (peptide)
chain: IQRSLYDCPAS
B6: PDGFRA_Y849_D846Y (peptide)
chain: MHYSNYVSKGS
B7: PDGFRA_Y993_E996K (peptide)
chain: YIGVTYKNKED
B8: PDGFRA_Y993_E996K_YF (peptide)
chain: FIGVTYKNKED
B9: PDGFRA_Y993_YF (peptide)
chain: FIGVTYKNEED
B10: PDGFRB_Y579 (peptide)
chain: SDGHEYIYVDP
B11: PDGFRB_Y579_P584R_YF (peptide)
chain: SDGHEYIFVDR
B12: PDGFRB_Y579_YF (peptide)
chain: SDGHEYIFVDP
B13: PDGFRB_Y589 (peptide)
chain: PMQLPYDSTWE
B14: PDGFRB_Y589_Y589H (peptide)
chain: PMQLPHDSTWE
B15: PDHA1_Y242 (peptide)
chain: AASTDYYKRGD
B16: PDHA1_Y242_Y243N (peptide)
chain: AASTDYNKRGD
B17: PDHA1_Y243_Y243N (peptide)
chain: ASTDYNKRGDF
B18: PDHA1_Y243_Y243N_YF (peptide)
chain: ASTDFNKRGDF
B19: PDHA1_Y289 (peptide)
chain: LQTYRYHGHSM
B20: PDHA1_Y289_H292L (peptide)
chain: LQTYRYHGLSM
B21: PDHA1_Y289_R288H (peptide)
chain: LQTYHYHGHSM
B22: PDHA1_Y289_R288H_YF (peptide)
chain: LQTFHYHGHSM
B23: PDHA1_Y301_R302C (peptide)
chain: DPGVSYCTREE
B24: PDK3_Y337_YF (peptide)
chain: RLFARYFQGDL
B25: PDLIM4_Y137 (peptide)
chain: SLGSPYGQPPR
B26: PDLIM4_Y137_G138E (peptide)
chain: SLGSPYEQPPR
B27: PDLIM4_Y137_R142C (peptide)
chain: SLGSPYGQPPC
B28: PDLIM5_Y382 (peptide)
chain: SNSATYSGSVA
B29: PDPR_Y104_Y109H (peptide)
chain: QKMADYSNKLH
B30: PDPR_Y104_YF (peptide)
chain: QKMADYSNKLF
B31: PDPR_Y109_Y109H (peptide)
chain: YSNKLHYQLEQ
B32: PDPR_Y109_YF (peptide)
chain: FSNKLYFQLEQ
B33: PDPR_Y110 (peptide)
chain: SNKLYYQLEQE
B34: PDPR_Y110_Y109H (peptide)
chain: SNKLHYQLEQE
B35: PDPR_Y110_YF (peptide)
chain: SNKLFYQLEQE
B36: PDZD2_Y557 (peptide)
chain: SASQEYHIVKK
B37: PDZD2_Y557_S552R (peptide)
chain: RASQEYHIVKK

Target: SHP2 C-SH2 domain E139D
Assay: enrichment score (SH2-bound / input frequency) (ratio); bacterial display of known human phosphotyrosine sites (pTyr-Var adds point mutants) read by sequencing; higher = stronger binding; tyrosines were phosphorylated by kinases first
Conditions: peptide library: pTyr-Var
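Note: displayed peptides selected on beads carrying the immobilized SH2 domain, with library peptides lacking any tyrosine serving as negative controls.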

Enrichment score, inactive:
B1 0.747, B2 0.73, B3 1.03, B4 0.63, B5 0.689, B6 0.634, B7 1.16, B8 1.61, B9 1.65, B10 0.389, B11 0.796, B12 1.15, B13 0.767, B14 1.14, B15 0.384, B16 0.547, B17 0.54, B18 0.469, B19 0.87, B20 0.855, B23 0.726, B24 0.507, B25 0.619, B26 0.487, B27 0.586, B28 0.387, B29 0.622, B30 0.613, B31 0.73, B32 1.03, B33 1.01, B34 0.739, B35 0.985, B36 0.59, B37 0.874

Enrichment score, active:
B21 3.92, B22 4.21

Target: SHP2 C-SH2 domain wild-type
Assay: as above
Conditions: peptide library: pTyr-Var

Enrichment score, active:
B21 3.62, B22 3.5

Enrichment score, inactive:
B1 0.64, B2 0.712, B3 0.818, B4 0.633, B5 0.69, B6 0.647, B7 1.43, B8 1.15, B9 1.2, B10 0.493, B11 0.662, B12 0.69, B13 0.663, B14 0.983, B15 0.523, B16 0.379, B17 0.532, B18 0.619, B19 1.14, B20 0.736, B23 0.583, B24 0.433, B25 0.478, B26 0.669, B27 0.668, B28 0.309, B29 0.657, B30 0.634, B31 0.593, B32 0.892, B33 0.8, B34 0.568, B35 0.875, B36 0.454, B37 1.14

Target: SHP2 N-SH2 domain L43F
Assay: as above
Conditions: peptide library: pTyr-Var

Enrichment score, inactive:
B1 0.629, B2 0.824, B3 0.73, B4 0.62, B5 0.591, B6 0.597, B7 1.17, B8 1.28, B9 1.47, B10 0.379, B11 0.654, B12 0.716, B13 0.737, B14 1.11, B15 0.566, B16 0.5, B17 0.409, B18 0.543, B19 1.02, B20 0.64, B23 0.685, B24 0.385, B25 0.51, B26 0.441, B27 0.622, B28 0.38, B29 0.669, B30 0.951, B31 0.772, B32 0.889, B33 0.769, B34 0.58, B35 1.05, B36 0.549, B37 1.32

Enrichment score, active:
B21 4.19, B22 3.43

Target: SHP2 N-SH2 domain T42A
Assay: as above
Conditions: peptide library: pTyr-Var

Enrichment score, inactive:
B1 0.403, B2 0.914, B3 0.791, B4 0.565, B5 0.715, B6 2.16, B7 1.55, B8 1.36, B9 1.46, B10 0.43, B11 0.679, B12 0.662, B13 0.764, B14 0.569, B15 0.548, B16 0.58, B17 0.422, B18 0.465, B19 0.81, B20 0.907, B21 3.16, B22 3.15, B23 0.407, B24 0.328, B25 0.464, B26 0.468, B27 0.474, B28 0.333, B29 0.612, B30 0.908, B31 0.674, B32 0.764, B33 0.749, B34 0.519, B35 0.905, B36 0.625, B37 0.868

Target: SHP2 N-SH2 domain T52S
Assay: as above
Conditions: peptide library: pTyr-Var

Enrichment score, inactive:
B1 0.566, B2 0.931, B3 0.837, B4 0.605, B5 0.644, B6 0.64, B7 1.51, B8 1.69, B9 1.47, B10 0.365, B11 0.574, B12 0.71, B13 0.611, B14 0.893, B15 0.548, B16 0.457, B17 0.495, B18 0.453, B19 0.69, B20 1.02, B23 0.45, B24 0.416, B25 0.498, B26 0.573, B27 0.524, B28 0.356, B29 0.613, B30 0.641, B31 0.676, B32 0.864, B33 0.933, B34 0.679, B35 1.12, B36 0.7, B37 0.789

Enrichment score, active:
B21 4.66, B22 3.83

Target: SHP2 N-SH2 domain wild-type
Assay: as above
Conditions: peptide library: pTyr-Var

Enrichment score, active:
B21 4.05, B22 3.39

Enrichment score, inactive:
B1 0.745, B2 0.455, B3 0.964, B4 1.08, B5 0.786, B6 0.6, B7 1.31, B8 1.34, B9 1.38, B10 0.394, B11 0.811, B12 0.525, B13 0.829, B14 1.38, B15 0.534, B16 0.557, B17 0.551, B18 0.469, B19 1.19, B20 0.874, B23 0.683, B24 0.523, B25 0.636, B26 0.468, B27 0.83, B28 0.337, B29 0.761, B30 0.578, B31 0.822, B32 1.55, B33 1.02, B34 0.592, B35 0.872, B36 0.652, B37 1.1
